{"source": "paper PMC9911399", "about": "“Two distinct binding modes provide the RNA-binding protein RbFox with extraordinary sequence specificity”", "binders": {"B1": {"name": "AGAGUUG (DNA:RNA)", "RNA": "GGGAGACCGGAAUUCAGAUUGUCCAGAGUUGUUAAAUCCCGUCGUAGCCACCA", "DNA 1": "CAATCTGAATTCCGGTCTCCC", "DNA 2": "TGGTGGCTACGACGGGATT"}, "B2": {"name": "CGAGCGC (DNA:RNA)", "RNA": "B1 RNA with A25C, U29C, U30G, G31C", "DNA 1": "CAATCTGAATTCCGGTCTCCC", "DNA 2": "TGGTGGCTACGACGGGATT"}, "B3": {"name": "GCAGCCG (DNA:RNA)", "RNA": "B1 RNA with A25G, G26C, U29C, U30C", "DNA 1": "CAATCTGAATTCCGGTCTCCC", "DNA 2": "TGGTGGCTACGACGGGATT"}, "B4": {"name": "GUAUGUC (DNA:RNA)", "RNA": "B1 RNA with A25G, G26U, G28U, U29G, G31C", "DNA 1": "CAATCTGAATTCCGGTCTCCC", "DNA 2": "TGGTGGCTACGACGGGATT"}, "B5": {"name": "AUAGUUU (DNA:RNA)", "RNA": "B1 RNA with G26U, G31U", "DNA 1": "CAATCTGAATTCCGGTCTCCC", "DNA 2": "TGGTGGCTACGACGGGATT"}, "B6": {"name": "AGAUCGU (DNA:RNA)", "RNA": "B1 RNA with G28U, U29C, U30G, G31U", "DNA 1": "CAATCTGAATTCCGGTCTCCC", "DNA 2": "TGGTGGCTACGACGGGATT"}, "B7": {"name": "AAAGAUA (DNA:RNA)", "RNA": "B1 RNA with G26A, U29A, G31A", "DNA 1": "CAATCTGAATTCCGGTCTCCC", "DNA 2": "TGGTGGCTACGACGGGATT"}, "B8": {"name": "UUCGCGG (DNA:RNA)", "RNA": "B1 RNA with A25U, G26U, A27C, U29C, U30G", "DNA 1": "CAATCTGAATTCCGGTCTCCC", "DNA 2": "TGGTGGCTACGACGGGATT"}, "B9": {"name": "AUCACAA (DNA:RNA)", "RNA": "B1 RNA with G26U, A27C, G28A, U29C, U30A, G31A", "DNA 1": "CAATCTGAATTCCGGTCTCCC", "DNA 2": "TGGTGGCTACGACGGGATT"}}, "note": "Numbering of substitutions follows the chain as printed; changes in the protein carry UniProt numbers. The list shows a part of the results."}
{"target": "T1, RBFOX1 RRM (Homo sapiens, UniProt Q9NWB1 109-208)", "T1 sequence": "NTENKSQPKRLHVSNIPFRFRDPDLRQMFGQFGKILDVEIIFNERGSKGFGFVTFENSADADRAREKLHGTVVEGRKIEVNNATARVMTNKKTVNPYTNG", "test": "EMSA; HiTS-Eq, 1 nM pool, 10 min; buffer printed only for the single-RNA assays: 10 mM Tris pH 7.5, 150 mM NaCl, 3.4 mM EDTA, 0.001% NP-40, 30 C", "settings": "tags: His6 N-terminal (pET28a); label: 5' 32P", "outline": "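Relative association constants, normalised to the cognate motif, were derived by comparing read counts of each RNA species with those of the control reaction. The RNA sequenced was the free fraction, separated by 8% native PAGE after a 10 min equilibration in 50 µL of 1 nM 5′-radiolabelled RNA (7 randomized nucleotides) with increasing concentrations of purified wild-type or mutant RbFox RRM.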"}
{"binder": "B1", "binding signal": "0.0122 KA relative to UGCAUGU"}
{"binder": "B2", "binding signal": "0.0134 KA relative to UGCAUGU"}
{"binder": "B3", "binding signal": "0.0143 KA relative to UGCAUGU"}
{"binder": "B4", "binding signal": "0.0124 KA relative to UGCAUGU"}
{"binder": "B5", "binding signal": "0.00379 KA relative to UGCAUGU"}
{"binder": "B6", "binding signal": "0.0126 KA relative to UGCAUGU"}
{"binder": "B7", "binding signal": "0.00121 KA relative to UGCAUGU"}
{"binder": "B8", "binding signal": "0.00875 KA relative to UGCAUGU"}
{"binder": "B9", "binding signal": "0.00119 KA relative to UGCAUGU"}
